# Measurements published in the supplement of paper PMC8728848.
# The list shows a part of the results.
# B1: Si Bti9 1b-V5-his (Solanum lycopersicum) (protein)
# chain: MQCNRGCDLALASFYVWRGSNLTLISEMFSTSIADIVSYNNRDNIPNQDSVIAGTRINIPFRCDCLNDGEVLGHAFPYRVKSGDTYDLVARNYSDLTTAQWMMKFNSYPENNIPNTVNLSVVVNCSCGNSDVSKDFGLFVTYPVRAEDNLTSVASAANVSEDIIRRYNPAAVSILDIGQGIIYIPGRDRNGNFPPLPTSTDGLSGGAKKGGRADPAFLYKVVINSKLEGKPIPNPLLGLDSTRTGHHHHHH
# Key:
# Assay in all cases: glycan array binding signal (z-score within array); higher = stronger binding
# Details in all cases: glycan notation: IUPAC condensed, linker removed
# [1] = molecular target: Neu5Ac(a2-8)Neu5Ac
# Procedure, shortened: (§1)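 Arrays were curated from the Consortium for Functional Glycomics database, 3228 in total, and kept only where the protein sequence was available. Binding is expressed as a within-array Z-score. This score was averaged across arrays of the same protein sequence at different concentrations or buffers and across linkers, and negative values can be read as non-binding.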
# [2] = molecular target: Neu5Ac(a2-8)Neu5Ac(a2-3)Gal(b1-3)GalNAc(b1-4)[Neu5Ac(a2-3)]Gal(b1-4)Glc
# Procedure, shortened: as §1
# [3] = molecular target: Neu5Ac(a2-8)Neu5Ac(a2-3)Gal(b1-3)GalNAc(b1-4)[Neu5Ac(a2-8)Neu5Ac(a2-3)]Gal(b1-4)Glc
# Procedure, shortened: as §1
# [4] = molecular target: Neu5Ac(a2-8)Neu5Ac(a2-3)Gal(b1-4)Glc
# Procedure, shortened: as §1
# [5] = molecular target: Neu5Ac(a2-8)Neu5Ac(a2-3)Gal(b1-4)GlcNAc
# Procedure, shortened: as §1
# [6] = molecular target: Neu5Ac(a2-8)Neu5Ac(a2-3)[Gal(b1-3)GalNAc(b1-4)]Gal(b1-4)Glc
# Procedure, shortened: as §1
# [7] = molecular target: Neu5Ac(a2-8)Neu5Ac(a2-3)[GalNAc(b1-4)]Gal(b1-4)Glc
# Procedure, shortened: as §1
# [8] = molecular target: Neu5Ac(a2-8)Neu5Ac(a2-8)Neu5Ac
# Procedure, shortened: as §1
# [9] = molecular target: Neu5Ac(a2-8)Neu5Ac(a2-8)Neu5Ac(a2-3)Gal(b1-4)Glc
# Procedure, shortened: as §1
# [10] = molecular target: Neu5Ac(a2-8)Neu5Ac(a2-8)Neu5Ac(a2-3)[Gal(b1-3)GalNAc(b1-4)]Gal(b1-4)Glc
# Procedure, shortened: as §1
# [11] = molecular target: Neu5Ac(a2-8)Neu5Ac(a2-8)Neu5Ac(a2-3)[GalNAc(b1-4)]Gal(b1-4)Glc
# Procedure, shortened: as §1
# [12] = molecular target: Neu5Ac(a2-8)Neu5Ac(a2-8)Neu5Ac(a2-8)Neu5Ac(a2-3)[GalNAc(b1-4)]Gal(b1-4)Glc
# Procedure, shortened: as §1
# [13] = molecular target: Neu5Ac(a2-8)Neu5Gc(a2-3)Gal(b1-4)GlcNAc
# Procedure, shortened: as §1
# [14] = molecular target: Neu5Ac(b2-6)Gal(b1-4)GlcNAc
# Procedure, shortened: as §1
# [15] = molecular target: Neu5Ac(b2-6)GalNAc
# Procedure, shortened: as §1
# [16] = molecular target: Neu5Ac9Ac(a2-3)Gal(b1-3)GlcNAc
# Procedure, shortened: as §1
# [17] = molecular target: Neu5Ac9Ac(a2-3)Gal(b1-4)GlcNAc
# Procedure, shortened: as §1
# [18] = molecular target: Neu5Ac9Ac(a2-6)Gal(b1-4)GlcNAc
# Procedure, shortened: as §1
# [19] = molecular target: Neu5Gc(a2-3)Gal(b1-3)GlcNAc
# Procedure, shortened: as §1
# [20] = molecular target: Neu5Gc(a2-3)Gal(b1-3)[Fuc(a1-4)]GlcNAc
# Procedure, shortened: as §1
# [21] = molecular target: Neu5Gc(a2-3)Gal(b1-4)Glc
# Procedure, shortened: as §1
# [22] = molecular target: Neu5Gc(a2-3)Gal(b1-4)GlcNAc
# Procedure, shortened: as §1
# [23] = molecular target: Neu5Gc(a2-3)Gal(b1-4)GlcNAc(b1-3)Gal(b1-4)GlcNAc(b1-2)Man(a1-3)[Neu5Gc(a2-3)Gal(b1-4)GlcNAc(b1-3)Gal(b1-4)GlcNAc(b1-2)Man(a1-6)]Man(b1-4)GlcNAc(b1-4)GlcNAc
# Procedure, shortened: as §1
# [24] = molecular target: Neu5Gc(a2-3)Gal(b1-4)[Fuc(a1-3)]GlcNAc
# Procedure, shortened: as §1
# [25] = molecular target: Neu5Gc(a2-6)Gal(b1-4)GlcNAc
# Procedure, shortened: as §1
# [26] = molecular target: Neu5Gc(a2-6)GalNAc
# Procedure, shortened: as §1
# [27] = molecular target: Neu5Gc(a2-8)Neu5Ac(a2-3)Gal(b1-4)GlcNAc
# Procedure, shortened: as §1
# [28] = molecular target: Neu5Gc(a2-8)Neu5Gc(a2-3)Gal(b1-4)GlcNAc
# Procedure, shortened: as §1
# [29] = molecular target: Neu5Gc(a2-8)Neu5Gc(a2-3)Gal(b1-4)GlcNAc(b1-3)Gal(b1-4)GlcNAc
# Procedure, shortened: as §1
# [30] = molecular target: Neu5Gc(a2-8)Neu5Gc(a2-6)Gal(b1-4)GlcNAc
# Procedure, shortened: as §1
# [31] = molecular target: Neu5Gc(b2-6)Gal(b1-4)GlcNAc
# Procedure, shortened: as §1
binder,measurement,setting,value
B1,glycan array binding signal (z-score),[1],-0.231
same,glycan array binding signal (z-score),[2],-0.338
same,glycan array binding signal (z-score),[3],-0.186
same,glycan array binding signal (z-score),[4],-0.192
same,glycan array binding signal (z-score),[5],-0.343
same,glycan array binding signal (z-score),[6],-0.341
same,glycan array binding signal (z-score),[7],-0.076
same,glycan array binding signal (z-score),[8],-0.323
same,glycan array binding signal (z-score),[9],-0.253
same,glycan array binding signal (z-score),[10],-0.135
same,glycan array binding signal (z-score),[11],-0.31
same,glycan array binding signal (z-score),[12],-0.164
same,glycan array binding signal (z-score),[13],-0.378
same,glycan array binding signal (z-score),[14],-0.175
same,glycan array binding signal (z-score),[15],-0.242
same,glycan array binding signal (z-score),[16],0.81
same,glycan array binding signal (z-score),[17],-0.341
same,glycan array binding signal (z-score),[18],0.222
same,glycan array binding signal (z-score),[19],-0.159
same,glycan array binding signal (z-score),[20],0.102
same,glycan array binding signal (z-score),[21],-0.216
same,glycan array binding signal (z-score),[22],-0.319
same,glycan array binding signal (z-score),[23],-0.126
same,glycan array binding signal (z-score),[24],-0.132
same,glycan array binding signal (z-score),[25],-0.094
same,glycan array binding signal (z-score),[26],-0.239
same,glycan array binding signal (z-score),[27],-0.395
same,glycan array binding signal (z-score),[28],-0.387
same,glycan array binding signal (z-score),[29],-0.317
same,glycan array binding signal (z-score),[30],-0.311
same,glycan array binding signal (z-score),[31],-0.257
